# From PubChem BioAssay AID1347043 (National Center for Advancing Translational Sciences (NCATS), 2019)
# The campaign covered roughly 76,000 compounds. About 1,900 (2.5%) were called active. Inconclusive results, whose numbers are uncertain, are shown with a selection of clear calls. Calls come from the whole dose curve; as a rule, active = well fitted inhibition curve with a large enough effect; inconclusive = small, poorly fitted or top-dose-only effect; inactive = flat fitted curve, though single readings scatter. Where the call is inconclusive, the potency comes from a doubtful curve fit.
# Molecular target: Luciferin 4-monooxygenase (Photinus pyralis) (UniProt P08659)
# Experiment: Firefly luciferase inhibition profiling of diverse chemical library using quantitative high-throughput screening; note: nearly all actives have a fitted effect of over 65% in size
# Settings: purified P. pyralis luciferase, luminescence, biochemical; series mostly up to 115 µM
# Summary of the method: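 Cell-free enzyme assay, 10nM P. pyralis luciferase, luciferin and ATP each at 10uM. Inhibition profiled over a 6-point titration, read as luminescence.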
# Potency is the fitted concentration of half-maximal effect; tags give direction and shape of the fitted curve.
# UniProt P08659, sequence (P08659 whole entry, looked up): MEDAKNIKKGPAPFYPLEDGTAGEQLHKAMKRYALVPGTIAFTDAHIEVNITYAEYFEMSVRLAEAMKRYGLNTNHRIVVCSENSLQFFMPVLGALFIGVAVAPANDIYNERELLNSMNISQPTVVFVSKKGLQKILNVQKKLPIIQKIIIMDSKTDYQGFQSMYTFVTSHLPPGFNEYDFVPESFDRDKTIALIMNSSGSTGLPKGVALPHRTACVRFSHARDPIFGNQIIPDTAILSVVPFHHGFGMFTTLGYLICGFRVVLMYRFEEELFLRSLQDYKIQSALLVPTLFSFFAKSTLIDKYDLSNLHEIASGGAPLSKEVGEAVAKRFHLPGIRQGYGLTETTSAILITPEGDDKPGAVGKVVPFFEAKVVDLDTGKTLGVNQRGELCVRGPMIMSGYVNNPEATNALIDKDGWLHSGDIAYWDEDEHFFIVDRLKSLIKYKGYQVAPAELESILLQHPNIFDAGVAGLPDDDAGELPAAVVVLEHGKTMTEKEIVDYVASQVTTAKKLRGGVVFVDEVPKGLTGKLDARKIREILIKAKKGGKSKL
row,Compound,Potency
1,O=C(Nc1ccc(Cl)cc1)c1nc2c(o1)CCN(Cc1cnc[nH]1)CC2,active: 70.8 µM
2,COc1ccc(-c2noc(-c3ccc(N4C[C@H]5CC[C@H]4C5)nc3)n2)cc1,active: 25.1 µM
3,Cc1ccc(NC(=O)CN2C(=O)NC(c3ccccc3Cl)C3=C2COC3=O)cc1 (stereo not given),"inconclusive: 50.1 µM [inhibitor, partial curve, poor fit]"
4,Cc1cnc(C(=O)N[C@@H]2CCC[C@@H]2C(=O)Nc2ccc3c(c2)OCCO3)cn1,"inconclusive: 44.7 µM [inhibitor, partial curve]"
5,COc1ccc(F)cc1-c1ccc(COc2ccc3c(cnn3CCC(=O)O)c2)cc1,active: 22.4 µM
6,c1ccc2oc(CN3Cc4[nH]cnc4C[C@H]3c3nc(-c4ccc5c(c4)OCO5)no3)cc2c1,"inconclusive: 44.7 µM [inhibitor, partial curve]"
7,O=C(c1cc(-c2ccc(F)cc2)nc2ccccc12)N1CCCC(c2nc(C3CCOCC3)no2)C1 (stereo not given),"inconclusive: 28.2 µM [inhibitor, full curve, poor fit]"
8,N[C@@H]1CC[C@H](C(=O)N2CCC(Oc3cccc(C(F)(F)F)c3)CC2)C1,inactive
9,Cc1ccc(C2=NC3(CCN(C(=O)c4ccco4)CC3)ON2)cc1,active: 28.2 µM
10,Cc1cccc(N2CCN(c3nccc(-c4ccccn4)n3)CC2)n1,"inconclusive: 79.4 µM [inhibitor, single point]"
11,Cc1nn(C)c2nc(-c3ccccn3)nc(NCc3ccc4c(c3)OCO4)c12,"inconclusive: 28.2 µM [inhibitor, partial curve]"
12,Cc1cc(-c2nc3ccncc3[nH]2)c(C)o1,active: 44.7 µM
13,Cc1ccc(C2=NC3(CCN(C(=O)c4ccc(N(C)C)cc4)CC3)ON2)cc1,"inconclusive: 50.1 µM [inhibitor, partial curve, poor fit]"
14,CN(C)c1cccc(-c2cc3c(cn2)CN(Cc2cccnc2)CCN3)c1,"inconclusive: 3.98 µM [inhibitor, full curve]"
15,O=[S+]([O-])(c1cccs1)N1CCc2nc(C3CC3)nc(-c3ccc(Cl)cc3)c2CC1,inactive
16,CCC1(O)CCCN(C(=O)c2coc(COc3ccc4ccc(OC)cc4c3)n2)C1 (stereo not given),"inconclusive: 79.4 µM [inhibitor, partial curve, poor fit]"
17,CC(C)c1noc(-c2cccn3c(CNC(=O)c4cc5ccccc5[nH]4)nnc23)n1,"inconclusive: 3.98 µM [inhibitor, full curve]"
18,O=C(C1CCOC1)N1CC(Oc2cccc(-c3nc(-c4ccccc4)no3)c2)C1 (stereo not given),active: 44.7 µM
19,O=C(Nc1ccccc1)N[C@H]1[C@H](O)[C@@H](Oc2ccccc2)[C@@H]2OC[C@H]1O2,"inconclusive: 126 µM [inhibitor, single point]"
20,Cc1noc(C)c1-c1cc(-c2ccccc2F)cn2cncc12,inactive
21,CC(C)N1C[C@@H](CO)[C@H](c2nc(-c3cccnc3)no2)C1,active: 20 µM
22,COCCNc1nc2cc(-c3nc(-c4cccnn4)no3)ccc2n1C,"inconclusive: 31.6 µM [inhibitor, full curve]"

row,Compound,Potency
1,O=C(NCCC1CCN(C(=O)Nc2cccc(F)c2)CC1)c1ccccc1,"inconclusive: 28.2 µM [inhibitor, partial curve]"
2,CNC(=O)CCn1ncc2cc(OCc3ccccc3-c3cccnc3OC)ccc21,"inconclusive: 50.1 µM [inhibitor, partial curve]"
3,O=C(Nc1ccc2oc(-c3ccccc3)nc2c1)C1CCN(c2cnn(Cc3ccccc3)c(=O)c2)C1 (stereo not given),"inconclusive: 100 µM [inhibitor, single point]"
4,CC(C)c1cc(N2C[C@H](O)[C@@H](N3CCCCC3)C2)n2nccc2n1,inactive
5,CN(C)c1cccc(-c2cc3c(cn2)CN(Cc2ccncc2)CCN3)c1,"inconclusive: 50.1 µM [inhibitor, partial curve, poor fit]"
6,COc1ccc(C(C)NC(=O)c2noc(-c3ccc(C)cc3)n2)cc1 (stereo not given),"inconclusive: 39.8 µM [inhibitor, partial curve]"
7,Cc1ccc(C(=O)N(C)CC2(C)CCOCC2)s1,"inconclusive: 50.1 µM [inhibitor, partial curve]"
8,CCC1Oc2ccc(NC(=O)COc3ccccc3)cc2CN(Cc2ccc(OC)cc2)C1=O (stereo not given),inactive
9,COc1ccc(-c2cnc3[nH]cc(CC(=O)N4CCCC4)c3c2)cc1,active: 22.4 µM
10,COc1ccc(NC(=O)N2CCC3(CC2)SCC(=O)N3c2ccc(OC)cc2)cc1,"inconclusive: 56.2 µM [inhibitor, partial curve]"
11,CCOc1ccc2c(n1)CCN(C(=O)Nc1cc(C)cc(C)c1)C2,"inconclusive: 39.8 µM [inhibitor, partial curve]"
12,COc1ccc(C2(C(=O)N3CC(CO)C4(CCNCC4)C3)CCCCC2)cc1 (stereo not given),"inconclusive: 56.2 µM [inhibitor, partial curve]"
13,CCCc1nc(C(=O)NCC2CCN(Cc3ccc(C)o3)CC2)cs1,inactive
14,Cc1nc(N2CCC(C(=O)Nc3ccc(F)c(Cl)c3)CC2)cc(C(F)(F)F)n1,inactive
15,Cc1ccc(-c2cc(C(=O)N3CCC(Cc4nncn4CC4CC4)CC3)c3ccccc3n2)cc1C,active: 1.58 µM
16,O=C(NCc1ccnc2[nH]ccc12)c1ccccc1F,"inconclusive: 44.7 µM [inhibitor, partial curve]"
17,Cc1cc(C(=O)N[C@H]2[C@H](O)[C@H](O)C[C@@H]2c2ccc(N3CCOCC3)nc2)nn1C,"inconclusive: 126 µM [inhibitor, partial curve, poor fit]"
18,FC(F)(F)c1cccc(-c2cc(-c3cccnc3)c3cncn3c2)c1,inactive
19,COc1ccccc1-c1cc(C(=O)NCCc2cnc[nH]2)c2c(c1)N(C)CCO2,"inconclusive: 112 µM [inhibitor, single point]"
20,CN1c2cccnc2CN(Cc2ccccn2)CC[C@H]1CO,inactive
21,COCCn1cnc2ccc(-c3ccsc3)nc2c1=O,"inconclusive: 100 µM [inhibitor, partial curve]"
22,O=C(NC1CCCN(c2cc(-c3ccccc3)[nH]n2)C1)c1ccccn1 (stereo not given),"inconclusive: 56.2 µM [inhibitor, partial curve]"

row,Compound,Potency
1,Cc1ccc(OCc2nc(C3CN(C(=O)c4cc5ccccc5[nH]4)C3)no2)cc1,"inconclusive: 20 µM [inhibitor, full curve]"
2,Cc1cnc(C(=O)N[C@@H]2CCC[C@@H]2C(=O)NCCC2=CCCCC2)cn1,"inconclusive: 50.1 µM [inhibitor, partial curve]"
3,O=C(Nc1ccc([C@@H](O)[C@H]2COCC(=O)N2Cc2ccc(F)cc2)cc1)c1ccc2c(c1)OCO2,"inconclusive: 50.1 µM [inhibitor, partial curve]"
4,COc1ccc(-c2noc([C@@H]3C[C@@H](O)CN3Cc3ccc(CO)o3)n2)cc1,"inconclusive: 50.1 µM [inhibitor, full curve, poor fit]"
5,Cn1ccnc1CN1C(=O)CO[C@H](c2ccc(NC(=O)c3ccc(F)c(Cl)c3)cc2)[C@H]1CO,"inconclusive: 50.1 µM [inhibitor, partial curve]"
6,N#Cc1ccc(C(=O)N2CCOCCNC(=O)[C@@H]3CCC[C@@H]32)cc1,inactive
7,CC(=O)NC1(C)CCN(Cc2cccc(-c3ccccc3)c2)C1 (stereo not given),inactive
8,COc1ccc(C(=O)NCC(=O)N2CCCCCNC(=O)CC2c2ccccc2)c(OC)c1 (stereo not given),inactive
9,Cc1cc(CNC(=O)c2cc(-c3ccc(N4CCOCC4)cc3)cc3c2OCCN3C)no1,"inconclusive: 39.8 µM [inhibitor, partial curve]"
10,CC(C)c1ccc(CN2CCc3ncc(C(=O)Nc4ccccc4)n3CC2)cc1,inactive
11,O=C(Nc1nccs1)c1ccc2c(c1)OCCN(CCC(F)(F)F)C2,"inconclusive: 50.1 µM [inhibitor, partial curve]"
12,Cc1cccc(CC(C)NC(=O)c2ccc3nc(Cc4ccccc4F)oc3c2)n1 (stereo not given),"inconclusive: 39.8 µM [inhibitor, partial curve]"
13,Cc1nn(-c2ccc(C(C)C)cc2)c(C)c1[C@@H]1C=C[C@@H](NCc2ccc(F)cc2)C1,active: 22.4 µM
14,COCCN1CCCCCC(O)c2cc(C(=O)N3CCc4ccccc43)ccc21 (stereo not given),"inconclusive: 50.1 µM [inhibitor, partial curve, poor fit]"
15,COc1ccccc1C1CCCN1C(=O)c1oc2ccc(C)cc2c1C (stereo not given),"inconclusive: 39.8 µM [inhibitor, partial curve]"
16,COC(=O)[C@@H]1Cc2c([nH]c3ccccc23)[C@H]2C[C@@H](N3CCOCC3)C[C@@H](c3ccc(F)cc3)N21,inactive
17,O=C(NCCn1cccc1-c1nc(-c2ccc3c(c2)OCO3)no1)c1ccc(Cl)s1,"inconclusive: 17.8 µM [inhibitor, full curve]"
18,CN1C[C@@H](NC(=O)COc2ccccc2)C[C@H]1c1nc(-c2ccc(Cl)cc2)no1,"inconclusive: 126 µM [inhibitor, partial curve, poor fit]"
19,C=CCCC(=O)N1CCOc2c(O)cc(-c3nc4ccccc4s3)cc2C1,"inconclusive: 39.8 µM [inhibitor, partial curve]"
20,O=C(NCCn1cccc1-c1nc(-c2ccc3c(c2)OCO3)no1)c1cccc(F)c1,"inconclusive: 39.8 µM [inhibitor, partial curve]"
21,CCC1(N2CCN(C(=O)CCc3c[nH]c4ccccc34)CC2)CCN(C(=O)NC)C1 (stereo not given),"inconclusive: 79.4 µM [inhibitor, partial curve, poor fit]"
